Measured values from the supplement of paper PMC12217912.
The other results are listed elsewhere or left out. The full chains were built here from the parent and the listed change. Inactive controls read about 0.05.

B1: TEV protease; numbered along this chain (parent)
chain: MGESLFKGPRDYNPISSSICHLTNESDGHTTSLYGIGFGPFIITNKHLFRRNNGTLVVQSLHGVFKVKDTTTLQQHLVDGRDMIIIRMPKDFPPFPQKLKFREPQREERICLVTTNFQTKSMSSMVSDTSCTFPSGDGIFWKHWIQTKDGQCGSPLVSTRDGFIVGIHSASNFTNTNNYFTSVPKNFMELLTNQEAQQWVSGWRLNADSVLWGGHKVFMVKPEEPFQPVKEATQL

Variants of: B1
Assay: raw area under fraction-flipped curve 0-4 h after induction (AUC4h, not background-subtracted), DNA-recorder readout of cleavage of the substrate (dimensionless); higher = more cleavage of the substrate by the protease variant
Settings: temperature: 34 °C; time window: 0-4 h after rhamnose induction
Method: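 In vivo DNA recorder in E. coli TOP10(DE3) ΔrhaA at 34 °C. Each TEVp single-site mutant (parent TEVp 0) is paired with a single-site variant of the 7-mer TEVs (canonical ENLYFQ|S). The substrate sits between flexible linkers in a Bxb1-sfGFP-TEVs-SsrA fusion, so cleavage stabilises Bxb1 and speeds flipping of a recombination array, read by NGS. The value is the raw area under the fraction-flipped curve over 0-4 h after rhamnose induction (AUC4h), with ≥20 reads per time point. It is not background-subtracted; inactive controls average about 0.047.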
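Note: Bxb1 expression induced with 0.2% (w/v) L-rhamnose at OD600 near 0.5, cultures sampled hourly, flipped fraction per protease–substrate barcode pair counted by paired-end Illumina sequencing.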

Row | Variant | area with substrate ENLAFQS | area with substrate ENLCFQS | area with substrate ENLDFQS | area with substrate ENLFFQS | area with substrate ENLGFQS | area with substrate ENLHFQS | area with substrate ENLIFQS | area with substrate ENLKFQS | area with substrate ENLLFQS | area with substrate ENLMFQS | area with substrate ENLNFQS | area with substrate ENLQFQS | area with substrate ENLSFQS | area with substrate ENLVFQS | area with substrate ENLWFQS | area with substrate ENLEFQS | area with substrate ENLPFQS | area with substrate ENLRFQS | area with substrate ENLTFQS
1 | N45V | 0.0577 | 0.0715 | 0.0613 | 0.0576 | 0.06 | 0.0731 | 0.0439 | 0.0725 | 0.0653 | 0.0714 | 0.0694 | 0.0817 | 0.0583 | 0.0663 | 0.0554 | – | – | – | –
2 | H47D | 0.067 | 0.0534 | 0.0764 | 0.0545 | – | 0.0611 | 0.0755 | 0.0649 | – | – | 0.0631 | – | 0.0384 | – | 0.0463 | 0.0588 | 0.0585 | – | –
3 | H47F | 0.0516 | – | 0.0648 | 0.0532 | – | 0.0489 | 0.0621 | 0.0647 | 0.0389 | 0.0559 | 0.076 | 0.0747 | 0.0408 | 0.0396 | 0.0516 | 0.0541 | 0.039 | 0.0677 | –
4 | H47Y | 0.0531 | 0.0612 | 0.0595 | 0.0547 | 0.05 | 0.059 | 0.058 | 0.0671 | 0.054 | – | 0.0659 | 0.0608 | 0.0629 | 0.0539 | 0.0552 | 0.0402 | 0.0559 | 0.0588 | –
5 | F49K | 0.0586 | – | 0.0644 | 0.0564 | 0.0482 | 0.0505 | 0.0651 | 0.0695 | 0.0563 | 0.0484 | 0.0546 | 0.043 | 0.0609 | 0.0655 | 0.0507 | 0.058 | 0.0583 | 0.0623 | 0.0299
6 | F49P | 0.0387 | 0.0672 | 0.0645 | 0.0662 | 0.0619 | 0.0573 | 0.0713 | 0.0631 | 0.0526 | 0.0602 | 0.0692 | 0.0688 | 0.0631 | 0.0555 | – | 0.0597 | 0.0592 | – | –
7 | F49V | 0.0599 | – | 0.062 | 0.061 | 0.0808 | 0.0567 | 0.0662 | 0.0702 | 0.0567 | 0.0603 | 0.0563 | 0.0737 | 0.0537 | – | 0.0564 | – | 0.052 | 0.0548 | –
8 | R51A | 0.0666 | – | – | – | – | – | – | – | – | 0.0673 | 0.0648 | 0.048 | 0.104 | 0.124 | – | 0.0632 | 0.0334 | 0.0716 | 0.0741
9 | G54H | 0.0532 | – | 0.0617 | 0.0748 | 0.0879 | 0.0587 | – | 0.0551 | 0.0527 | 0.0646 | 0.12 | 0.0642 | 0.0609 | 0.0911 | 0.0682 | 0.0651 | 0.0592 | 0.0613 | –
10 | G54L | 0.0444 | 0.0551 | 0.0653 | 0.0781 | 0.0534 | 0.0504 | 0.0521 | 0.0599 | 0.0439 | 0.0654 | 0.0561 | 0.0478 | 0.0521 | 0.0733 | – | 0.0503 | 0.0585 | 0.0503 | –
11 | G54R | 0.0563 | 0.0638 | 0.0636 | 0.0742 | 0.0595 | 0.0707 | 0.0562 | 0.0608 | 0.0593 | – | 0.0638 | 0.0378 | 0.0462 | – | 0.0593 | 0.0563 | 0.0568 | – | –
12 | T55G | 0.0739 | 0.0793 | 0.052 | 0.0872 | 0.068 | 0.0458 | 0.0709 | 0.0687 | – | 0.0748 | – | 0.0802 | 0.0541 | 0.0929 | 0.0711 | – | – | 0.069 | –
13 | L56D | 0.0335 | 0.0506 | 0.048 | 0.0457 | 0.0481 | 0.0502 | 0.049 | 0.0501 | 0.0488 | – | – | 0.0587 | 0.0419 | – | 0.0429 | 0.0467 | 0.0472 | 0.0594 | –
14 | L56V | 0.0665 | – | 0.0726 | 0.0667 | 0.0612 | 0.0706 | – | 0.0581 | 0.0606 | 0.0618 | 0.0598 | 0.0616 | – | 0.0811 | 0.0652 | 0.0856 | 0.0686 | 0.0915 | –
15 | V57G | 0.0604 | 0.0604 | 0.0626 | 0.0857 | 0.061 | 0.0688 | 0.0709 | 0.0765 | 0.111 | 0.0761 | 0.0707 | 0.0606 | 0.0621 | 0.0787 | – | 0.0607 | 0.0606 | 0.0736 | 0.0523
16 | V57L | 0.064 | 0.085 | 0.0639 | 0.0774 | – | 0.0781 | 0.0522 | 0.0783 | – | – | 0.0676 | – | 0.0937 | – | 0.075 | 0.086 | 0.0383 | 0.0792 | 0.0903
17 | V57W | 0.0948 | – | 0.066 | 0.0877 | – | 0.0707 | 0.0797 | 0.0752 | – | – | 0.0666 | – | 0.0603 | – | 0.0995 | – | 0.0646 | 0.0719 | –
18 | S60L | 0.036 | – | 0.0565 | 0.0758 | – | 0.0666 | – | 0.0645 | 0.0914 | – | – | – | 0.0587 | – | – | – | 0.0544 | – | –
19 | H62D | 0.0748 | 0.0691 | 0.064 | 0.0796 | – | 0.0649 | 0.0763 | 0.0773 | 0.0697 | 0.0645 | 0.0616 | 0.0656 | 0.0665 | 0.0755 | 0.0627 | 0.0529 | – | 0.0736 | –
20 | H62F | 0.0631 | – | 0.059 | 0.0712 | – | 0.0728 | 0.0729 | 0.0769 | 0.0701 | – | 0.0581 | – | 0.0613 | – | 0.0719 | 0.0678 | 0.0635 | 0.0812 | –
21 | G63Q | 0.0545 | 0.0685 | 0.0674 | 0.0804 | 0.058 | 0.0834 | – | 0.0738 | 0.0735 | – | 0.0626 | 0.0613 | 0.0582 | – | – | 0.059 | 0.0522 | 0.0614 | –
22 | G63Y | 0.0542 | – | 0.0655 | 0.074 | – | – | – | 0.0773 | 0.0604 | 0.0556 | 0.0532 | – | 0.0569 | 0.0863 | – | 0.083 | 0.063 | 0.0685 | 0.0716
23 | F65W | 0.0559 | – | 0.0702 | 0.0841 | – | – | – | – | 0.0795 | 0.0858 | 0.0622 | – | 0.0543 | 0.0849 | – | 0.062 | 0.0698 | 0.0862 | –
24 | K66P | 0.0495 | 0.0596 | 0.0574 | 0.0715 | 0.0682 | 0.0652 | 0.0678 | 0.0741 | 0.0601 | 0.0645 | 0.0593 | 0.0548 | 0.0539 | – | 0.0625 | 0.0718 | 0.0518 | 0.0668 | –
